Measurements taken from PubChem BioAssay AID686978 (National Center for Advancing Translational Sciences (NCATS), 2013).
Screen size: about 420,000 compounds; about 64,000 (15%) were called active. The inconclusive results got no clear call from the source; some entries with a clear call stand among them for comparison. Calls follow the shape of the dose curve; as a rule, active = well fitted inhibition curve with a large enough effect; inconclusive = small, poorly fitted or top-dose-only effect; inactive = flat fitted curve, though single readings scatter. No potency is given beside an inconclusive call; the fits are too rough.

Assay: qHTS for Inhibitors of human tyrosyl-DNA phosphodiesterase 1 (TDP1): qHTS in cells in absence of CPT; also: nearly all actives have a fitted effect of over 55% in size
Details: DT40 Tdp1-/- hTDP1 cells, no CPT, ATP luminescence, 48 h; activity change, negative = growth inhibition: at 46.2 µM (top of the series)
How it was run: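 Compound effects on proliferation are scored in DT40 Tdp1-/-;hTDP1 cells in the absence of CPT. ATP levels (CellTiter-Glo luminescence) are recorded after a ≥48 hr, 37 °C incubation.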
% is scaled to controls: 0 for no effect and ±100 for the full control effect; potency is read from the fitted curve at half-maximal effect; tags tell the direction and shape of the fitted curve.

Row | SMILES | activity change, negative = growth inhibition | Potency
1 | COc1ccc(C(=O)C2CCN(C(=S)Nc3ccc(F)cc3)CC2)cc1 | inactive: -13.4% | –
2 | N#CC1=C(S)N(c2ccc(F)cc2)C2(CCCCC2)NC1=O | inactive: -25.4% | –
3 | COc1ccccc1-c1nccc(Nc2ccc(F)cc2)n1 | – | inconclusive [inhibitor, single point]
4 | COc1ccccc1NC(=O)c1nn(-c2ccccc2)ccc1=O | – | inconclusive [inhibitor, single point]
5 | CC(C)C1CC(c2ccccc2)(C(CN)CO)CCO1 (stereo not drawn) | – | inconclusive [inhibitor, single point]
6 | COc1ccc(/C=N/N=C2/NC(=O)C(CC(=O)NC(C)C)S2)cc1 (stereo not drawn) | inactive: 0.417% | –
7 | O=C(COC(=O)c1ccc2ccccc2n1)Nc1ccccc1Br | inactive: 11.2% | –
8 | CC1(C(=O)NS(=O)(=O)C2CC2)CCCN(C(=O)c2cc3ccccc3s2)C1 (stereo not drawn) | – | active: 0.82 µM
9 | COC(=O)c1ccc2c(c1)N(Cc1cc(C)ccc1C)C(=O)c1ccccc1S2(=O)=O | – | inconclusive [inhibitor, single point]
10 | COC(=O)c1cnc[nH]1 | – | inconclusive [inhibitor, full curve]
11 | CCC(C)c1ccc(NC(=S)N2CCCC2)cc1 (stereo not drawn) | – | active: 10.3 µM
12 | COc1ccc2oc(C(=O)OCC(=O)N3CCN(c4ccccc4)CC3)c(C)c2c1 | – | inconclusive [inhibitor, single point]
13 | CCOc1ccc(S(=O)(=O)N2CCC(n3c(C)nc4cccnc43)CC2)cc1 | – | active: 11.6 µM
14 | COc1ccc(OCc2cc(C(=O)NCC3CCCCO3)no2)c(Cl)c1 (stereo not drawn) | inactive: -3.68% | –
15 | Cc1ccc(S(=O)(=O)NCCc2nnc3ccc(SCc4cccnc4)nn23)cc1 | inactive: -1.62% | –
16 | COc1cccc(C2CC(c3ccc(Br)cc3)=NN2C(=O)c2ccncc2)c1OC (stereo not drawn) | – | inconclusive [inhibitor, single point]
17 | Cc1cc(NC(=O)c2cccnc2Cl)ccc1NC(=O)c1cc2ccccc2o1 | – | active: 10.3 µM
18 | Cc1cccc(NC2(C(=O)O)CCCC2)c1 | – | inconclusive [inhibitor, single point]
19 | Cc1ccc(NC(=O)c2cc(-c3ccc(F)cc3)on2)cc1C | inactive: -15.1% | –
20 | CCCCN(c1ccccc1)c1ncnc2c1cnn2-c1cccc(C)c1 | inactive: -12.5% | –
21 | COc1ccccc1N1CCN(C(=O)CCCn2nc(C)c([N+](=O)[O-])c2C)CC1 | – | inconclusive [inhibitor, single point]
22 | O=C(Cn1c(=O)c2c(ncn2Cc2ccccc2)n(Cc2ccccc2)c1=O)N1CCCC1 | – | inconclusive [inhibitor, partial curve]
23 | O=C1OCCN1C(=O)[C@H]1[C@H](c2ccc(F)cc2)C(c2cccc(Cl)c2)=NN1c1ccc(Br)cc1 | – | inconclusive [inhibitor, single point]
24 | CN(C(=O)CSc1nc2ccccc2n1CC(=O)N(C)C1CCCCC1)c1ccc(F)cc1 | – | active: 29.1 µM
25 | O=C(NCCC1=CCCCC1)c1ccc(-n2cncn2)c([N+](=O)[O-])c1 | inactive: -14.1% | –

Row | SMILES | activity change, negative = growth inhibition | Potency
26 | Cc1ccc(OCc2nc3ccccc3n2C(C)C(=O)Nc2c(C)cccc2C)cc1 (stereo not drawn) | – | active: 18.4 µM
27 | Cc1cccc(N2CCN(C(=O)CCCSc3nc4ccccc4[nH]3)CC2)c1C | – | inconclusive [inhibitor, single point]
28 | CCOC(=O)c1c(C)[nH]c(C(=O)N(C)CC(=O)Nc2ccc(OCC)c(OCC)c2)c1C | – | inconclusive [inhibitor, single point]
29 | COc1cccc(CNC(=O)N2CCN(c3ccccc3C)CC2)c1 | inconclusive: -32.2% [inhibitor] | –
30 | CCc1ccccc1NC(=O)c1ccc2c(c1)c(C)c(C)n2Cc1ccccc1 | – | inconclusive [inhibitor, single point]
31 | Cc1cc(C)c(NC(=O)C2CCCN(C(=O)c3cnn(-c4ccccc4)c3-n3cccc3)C2)c(C)c1 (stereo not drawn) | – | inconclusive [inhibitor, single point]
32 | COC(=O)c1cc(C(=O)N2CCc3ccccc32)cc([N+](=O)[O-])c1 | inactive: -9.6% | –
33 | O=C(CN1C(=O)NC2(CCOc3ccccc32)C1=O)c1ccc(F)cc1 (stereo not drawn) | inactive: -8.37% | –
34 | CCCOc1c(Cl)cc(C(=O)Nc2ccc3c(c2)OCO3)cc1OCC | – | inconclusive [inhibitor, single point]
35 | O=C(CC1SC(N2CCCC2)=NC1=O)Nc1ccc(C(=O)NCc2ccc(F)cc2)cc1 (stereo not drawn) | inactive: -11.3% | –
36 | CSc1ncccc1C(=O)OCC(=O)NC12CC3CC(CC(C3)C1)C2 | – | inconclusive [inhibitor, single point]
37 | CCOCCCNC(=S)N1CCN(c2nc(-c3ccc(F)cc3)cs2)CC1 | – | inconclusive [inhibitor, single point]
38 | O=C(COc1ccc(Br)cc1)Nc1ccc(C(=O)OC2CCCCC2)cc1 | – | inconclusive [inhibitor, full curve, poor fit]
39 | CCc1ccc(S(=O)(=O)c2cn(Cc3ccc(OC)cc3)c3cc(OC)c(OC)cc3c2=O)cc1 | – | inconclusive [inhibitor, single point]
40 | COc1ccc(NS(=O)(=O)c2ccc(C(=O)N3CCC(C)CC3)cc2)cc1 | – | inconclusive [inhibitor, single point]
41 | Cn1c(=O)c2c(SCC(=O)N3CCCCC3)nc(-c3ccccc3F)nc2n(C)c1=O | – | inconclusive [inhibitor, single point]
42 | Cc1cccc(NC(=O)[C@H](Cc2ccccc2)NC(=O)OCc2ccccc2)c1 | – | inconclusive [inhibitor, single point]
43 | Nc1ccn([C@@H]2O[C@H](CNCc3cnc(N4CCOCC4)s3)[C@@H](O)[C@H]2O)c(=O)n1 | – | inconclusive [inhibitor, single point]
44 | O=C(NC(=S)NCc1nc2ccccc2[nH]1)c1ccc(F)cc1 | – | inconclusive [inhibitor, single point]
45 | CN(c1ccccc1)S(=O)(=O)c1cccc(NC(=O)Cc2ccc(Cl)cc2)c1 | – | active: 23.1 µM
46 | Cc1ccc(CNC(=O)CCNC(=O)c2ccc([N+](=O)[O-])cc2)cc1 | inactive: -2.53% | –
47 | COc1cccc(C2=NN(C(=O)c3cccs3)C(O)(C(F)(F)F)C2)c1 (stereo not drawn) | – | active: 18.4 µM
48 | CCn1ccnc1CNC(=O)c1ccc(OC2CCN(C(=O)COC)CC2)cc1 | inactive: 9.83% | –
49 | O=C(Nc1ccc(C(=O)OC2CCCCC2)cc1)c1ccncc1 | – | inconclusive [inhibitor, single point]
50 | C=CCn1c(Cc2ccc(OC(C)C)c(Cl)c2)nnc1SCC(N)=O | inactive: -4.77% | –

Row | SMILES | activity change, negative = growth inhibition | Potency
51 | CCCCCc1nnc(NC(=O)c2ccc(N3CCCC3=O)cc2)s1 | – | inconclusive [inhibitor, partial curve]
52 | CCOc1ccc(NC(=O)Cn2c(=O)n(-c3ccccc3)c(=O)c3c4c(sc32)CCCC4)cc1 | inactive: -23.3% | –
53 | C=C(C)CSc1nc2sc3c(c2c(=O)n1C1CCCCC1)CCN(C)C3 | – | active: 6.51 µM
54 | CCCc1cc(-n2ccnc2)n2c(nc3ccccc32)c1C#N | inconclusive: -32% [inhibitor] | –
55 | COC(=O)c1ccccc1NC(=O)CCC(=O)N1CCSc2ccccc21 | inactive: -21.1% | –
56 | COc1ccc(CC(=O)Nc2cc(S(=O)(=O)N3CCCCC3)ccc2N2CCN(C)CC2)cc1 | inactive: -22% | –
57 | Cc1ccc(CN2CCC(CNC(=O)Nc3cccc(C)c3C)C2)cc1 (stereo not drawn) | – | inconclusive [inhibitor, partial curve]
58 | CCc1nc2nc(C)cc(Nc3ccc(F)c(Cl)c3)n2n1 | – | inconclusive [inhibitor, single point]
59 | COc1ccccc1N1CCN(CCOc2c(OC)cccc2OC)CC1 | – | inconclusive [inhibitor, partial curve, poor fit]
60 | CNC(=S)N(Cc1ccc2c(c1)OCO2)C1CC(=O)N(c2ccccc2)C1=O (stereo not drawn) | inactive: -4.04% | –
61 | C#CCN(C(=O)c1ccc(OC2CCN(Cc3ccccn3)CC2)cc1)C1CCCCC1 | – | inconclusive [inhibitor, single point]
62 | O=C1CC(c2ccc(Br)cc2)c2c(ccc3ccccc23)N1 (stereo not drawn) | – | inconclusive [inhibitor, single point]
63 | CC1(C)Oc2nc3ccccc3n2/C1=C\C#N | inactive: -19.5% | –
64 | Cc1c(Cl)cccc1NC(=O)Cn1c(=O)n(Cc2ccco2)c(=O)c2oc3ccccc3c21 | – | inconclusive [inhibitor, single point]
65 | CSc1nnc(CSCc2ccc(Cl)cc2Cl)n1-c1ccccc1 | – | active: 20 µM
66 | COC(=O)[C@H](Cc1ccccc1)N1C/C=C\COc2c(Cl)cc(Cl)cc2S1(=O)=O | – | inconclusive [inhibitor, single point]
67 | COc1ccc(CCN2C(=S)N(C)C(=O)C2CC(=O)Nc2ccc(F)cc2)cc1 (stereo not drawn) | – | inconclusive [inhibitor, single point]
68 | CC(=O)C1C(c2cccc(F)c2)NC(=O)NC1(O)C(F)(F)F (stereo not drawn) | – | inconclusive [inhibitor, full curve, poor fit]
69 | CC(=O)N1CCCc2cc(S(=O)(=O)N3CCCC(C(=O)Nc4ccc(C)c(F)c4)C3)ccc21 (stereo not drawn) | – | active: 20.6 µM
70 | Cc1cccc(C(=O)Nc2ccccc2OCc2cc(=O)n3cc(C)ccc3n2)c1 | – | inconclusive [inhibitor, partial curve]
71 | CC1(C)Cc2c(sc3c2C(=O)N(c2ccccc2)C2=NCCN23)CS1 | inactive: -19.9% | –
72 | COc1ccc2nc(C)cc(N3CC(C)OC(C)C3)c2c1 (stereo not drawn) | inactive: -29.9% | –
73 | c1ccc(CNc2nc(NCCc3ccncc3)c3sccc3n2)cc1 | – | active: 10.3 µM
